This sample is rich in variants without activity.
B1: TPR 5TU (parent)
chain: GGAUCUUCUCGAUCUAACAAAAAAGACAAAUCUGCCACAAAGCUUGAGAGCAUCUUCGGAUGCAGAGGCGGCAGCCUUCGGUGGCGCGAUAGCGCCAACGUUCUCAACUAUGACACGCAAAACGCGUGCUCCGUUGAAUGGAGUUUAUCAUG

Variants of: B1
Experiment: polymerase ribozyme fitness, log enrichment relative to wild type (log ratio); higher = more active; in vitro selection for triplet polymerase activity
Method in brief: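 Streptavidin-bead capture of gel-excised extended constructs, followed by RT-PCR, closed a single triplicate in vitro selection round. That round began by annealing PCR-built, transcribed mutant libraries of each subunit of a heterodimeric triplet polymerase ribozyme with a biotinylated primer, the partner subunit and triplets, then incubating them frozen at −7 °C. After Illumina sequencing of inputs and outputs, genotypes needed ≥10 input reads and ≥1 read per output. Fitness is the base-2 logarithm of genotype enrichment over wild-type enrichment, using inverse-variance-weighted replicate averages.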

Q: With GGAUCUUCUCGAUCUAACAAAAAAGACAAAUCUGCCACAAAGCUUGAAAGCCUCUUCGGAUGCAGUGGCGGCAGCCUUCGGUGGUGCAAUAGCGCCAUCGUUCUCAACUAUGACACGCAAAACGCGUGCUCCGUUGUAUGGAGUUUAUCAUG [G48A A52C A66U C85U G88A A98U A137U] as the variant, how does the “polymerase ribozyme fitness (log ratio)” value read?
A: ≤ -4.2

Q: For GGAUCUUCUCGAUCUAACAAAAAAGACAAAUCUGCCACAAAGCUUGAAAGCCUCUUCGGAUGCAGAUGCGGCAGCCUUCGGUGGCGUGAUAGCGCCAACGUUCUCAACUAUGACACGCAAAACGCUUGCUCCGUUGAAUGGAGUUUAUCAUG [G48A A52C G67U C87U G126U], which “polymerase ribozyme fitness (log ratio)” value is on record?
A: ≤ -4.2

Q: For GGAUCUUCUCGAUCUAACAAAAAAGACAAAUCUGCCACAAAGCUUGAAAGCCUCUACGGAUGCAGAGGCGGCAGCCUUCGGUAGCGCGAUAGCGCCAACGUUCUCAACUAUGACACGCAAAACGCGUGCUCCGUUGAAUGGAGUUUAUCAUG [G48A A52C U56A G83A], which “polymerase ribozyme fitness (log ratio)” value is on record?
A: ≤ -4.2

Q: Which “polymerase ribozyme fitness (log ratio)” value does the source give for GGAUCUUCUCGAUCUAACAAAAAAGACAAAUCUGCCACAAAGCUUGAAAGCGUCGUCGGAUGCAGAGGCCGCAGCCUUCGGUGGCGCGAUAGCGCAAACGUUCUCAACUAUGACACGCAAAACGCGUGCUCCGUUGAAUGGAGUUUAUCAUG [G48A A52G U55G G70C C96A] here?
A: ≤ -4.2

Q: With GGAUCUUCUCGAUCUAACAAAAAAGACAAAUCUGCCACAAAGCUUGAAAGCUUCUUCGGAUGCAGAGGCGGCAGCCUUCGGUGGCGCGAUAGCGCCAACGUUCUCAACUAUGACACGCAAAACGCGUGCUCCGUUGAAUCGAGUUUAUCAUG [G48A A52U G140C] as the variant, how does the “polymerase ribozyme fitness (log ratio)” value read?
A: ≤ -4.2

Q: For GGAUCUUCUCGAUCUAACAAAAAAGACAAAUCUGCCACAAAGCUUGAAAGCAUCUUCGGGUGCAGUGGCGGCAGCCUUUGGUGCCGCGAUAGCGCCAGCGUUCUCCACUAGGACACGCAAAACGCGUGCUCCGUUGAAUGGAGUUUAUCAUG [G48A A60G A66U C79U G84C A98G A106C U111G], which “polymerase ribozyme fitness (log ratio)” value is on record?
A: ≤ -4.2

Q: For GGAUCUUCUCGAUCUAACAAAAAAGACAAAUCUGCCACAAAGCUUGAAAGCAUCUUCGGGUGCAGAGGCGGCAGCCUUCGGUUGCGCGAUAGCGCCAACGUUCUCAACUAUGACACGCAAAACGCUUGCUCCGCUGAAUGGAGUUUAUCAUG [G48A A60G G83U G126U U134C], which “polymerase ribozyme fitness (log ratio)” value is on record?
A: -3.58

Q: Which “polymerase ribozyme fitness (log ratio)” value does the source give for GGAUCUUCUCGAUCUAACAAAAAAGACAAAUCUGCCACAAAGCUUGAAAGCAUCUUCGGGAGCAGAGGCGGCAGCCUUCGGUGGCGCGAUAGCGCCAACGUUGUCAACUAUGACACGCAAAACGCGUGAUCCGUUGAAUGGAGUUUAUGAUG [G48A A60G U61A C103G C129A C149G] here?
A: ≤ -4.2

Q: Which “polymerase ribozyme fitness (log ratio)” value does the source give for GGAUCUUCUCGAUCUAACAAAAAAGACAAAUCUGCCACAAAGCUUGAAAGCAUCUUCGGAUGCAGCGGCGACAGCCUUCGGUGGCGCGAUAGCGUCAACGUUCGCAACUAGGACACGUAAAACGCGUGCUCCGUGGAAUGGAGUUUUUCAUG [G48A A66C G71A C95U U104G U111G C118U U135G A147U] here?
A: ≤ -4.2

Q: For GGAUCUUCUCGAUCUAACAAAAAAGACAAAUCUGCCACAAAGCUUGAAAGCAUCUUCGGAUGCAGAGGCGGCGGCCUUCGGUGGCGCGAUAGCGCCAACGUUCUCAACUCUGACACGCAACACGCGUGCUCCGUUGAAUGGAGUUUAUCAUG [G48A A73G A110C A121C], which “polymerase ribozyme fitness (log ratio)” value is on record?
A: ≤ -4.2

Q: For GGAUCUUCUCGAUCUAACAAAAAAGACAAAUCUGCCACAAAGCUUGAAAGCAUCUUCGGAUGCAGAGGCGGCGGCCUUGGGUGGCGAAAUAGCGCCAACGUUCUCAACUAUGACACACAACACGCGUGCUCCGUUGAAUGGAGUUUAUCAUG [G48A A73G C79G C87A G88A G117A A121C], which “polymerase ribozyme fitness (log ratio)” value is on record?
A: ≤ -4.2

Q: With GGAUCUUCUCGAUCUAACAAAAAAGACAAAUCUGCCACAAAGCUUGAAAGCAUCUUCGGAUGCAGAGGCGGCGGCCUUCGGUGGCGGGUUAGCGCAAACGUUCUCAACUAUGACACGCAAAACGCGUGCUCCGUUAAAUGGAGUUUAUCAUG [G48A A73G C87G A89U C96A G136A] as the variant, how does the “polymerase ribozyme fitness (log ratio)” value read?
A: ≤ -4.2

Q: Which “polymerase ribozyme fitness (log ratio)” value does the source give for GGAUCUUCUCGAUCUAACAAAAAAGACAAAUCUGCCACAAAGCUUGAAAGCAUCUUCGGAUGCAGAGGCGGCAGCCUUCGGUGGCGCGAUAGCGCCGACGUUCUCAAUUAUGACACGCAAAACGCGUGCUCCGUUGAAUGGAGUUUAUCAUG [G48A A97G C108U] here?
A: ≤ -4.2

Q: For GGAUCUUCUCGAUCUAACAAAAAAGACAAAUCUGCCACAAAGCUUGAAAGAAUCUACGUAUGCAGAGCCGGCAGCCUUCGGUGGCGCGAUAGCUCCAACGUUCUCAACUAUGACACGCAAAACGCGUGCUCCGUUGAAUGGAGUUUAUCAUG [G48A C51A U56A G59U G68C G94U], which “polymerase ribozyme fitness (log ratio)” value is on record?
A: ≤ -4.2

Q: With GGAUCUUCUCGAUCUAACAAAAAAGACAAAUCUGCCACAAAGCUUGAAAGUAUCUUCGGAUGCAGAGGCGGCAGCCUUCGGUGGCGCGAUAGCGCCAACGUUCUCAACUAUGUCACGCAAAACGCGUGCUCCGUUGAAUGGAGUUUAUGAUG [G48A C51U A113U C149G] as the variant, how does the “polymerase ribozyme fitness (log ratio)” value read?
A: ≤ -4.2

Q: With GGAUCUUCUCGAUCUAACAAAAAAGACAAAUCUGCCACAAAGCUUGAAAGCAUCUUCGGAUGCAGAGGCGGCAGUCUUCGGUGGCGAGAUAGCGCCAACGUUCUCAACUAUGACACGCAAAACGCGUGCUCCGUUGAAUGGAAUUUAUCAUG [G48A C75U C87A G143A] as the variant, how does the “polymerase ribozyme fitness (log ratio)” value read?
A: ≤ -4.2

Q: With GGAUCUUCUCGAUCUAACAAAAAAGACAAAUCUGCCACAAAGCUUGAAAGCAUCUUCGGAUGCAGAGGCGGCAGUCUUCGGUGGCGCAAUAGCGCCAAGGUUCUCAACUAUGACACGCAAAACGCGUGCUCCGUUGAAUGGAGUUUAUCAUG [G48A C75U G88A C99G] as the variant, how does the “polymerase ribozyme fitness (log ratio)” value read?
A: ≤ -4.2

Q: Which “polymerase ribozyme fitness (log ratio)” value does the source give for GGAUCUUCUCGAUCUAACAAAAAAGACAAAUCUGCCACAAAGCUUGAAAGCAUCUUCGGAUGCAGAGGCGGCAGCCUUAGGUGGGGCGAUAGCGCCAACGUUCUCAACUUUGACACGCAAAACACGUGCUCCGUUGAAUGGAGUUUAUCAUG [G48A C79A C85G A110U G124A] here?
A: ≤ -4.2

Q: With GGAUCUUCUCGAUCUAACAAAAAAGACAAAUCUGCCACAAAGCUUGAAAGCAUCUUCGGAUGCAGAGGCGGCAGCCUUAGGUGGCGCGAUAGCGCCAAGGUUCUCAACUAUGACACGCAAAACGCGUGCUCCGUUGAAUGGAGUUUAUCAUG [G48A C79A C99G] as the variant, how does the “polymerase ribozyme fitness (log ratio)” value read?
A: ≤ -4.2
